Some of the results follow.
B1: PhoQ; a variant is named by its letters at X, in order, P23837 (parent)
chain: MKKLLRLFFPLSLRVRFLLATAAVVLVLSLAYGMVALIGYSVSFDKTTFRLLRGESNLFYTLAKWENNKLHVELPENIDKQSPTMTLIYDENGQLLWAQRDVPWLMKMIQPDWLKSNGFHEIEADVNDTSLLLSGDHSIQQQLQEVREDDDDAEMTHSVAVNVYPATSRMPKLTIVVVDTIPVELKSSYMVWSWFIYVLSANLLLVIPLLWVAAWWSLRPIEALAKEVRELEEHNRELLNPATTRELTSLVRNLNRLLKSERERYDKYRTTLTDLTHSLKTPLXXLQXXLRSLRSEKMSVSDAEPVMLEQISRISQQIGYYLHRASMRGGTLLSRELHPVAPLLDNLTSALNKVYQRKGVNISLDISPEISFVGEQNDFVEVMGNVLDNACKYCLEFVEISARQTDEHLYIVVEDDGPGIPLSKREVIFDRGQRVDTLRPGQGVGLAVAREITEQYEGKIVAGESMLGGARMEVIFGRQHSAPKDE

Variants of: B1
Assay: enrichment ratio after two sorts for PhoP signalling (ratio (wild type AVST 3.29)); higher = more functional
Details: with PhoP (E. coli)

Variant | enrichment ratio
RNFT | ≤ 0.25
WFHM | ≤ 0.25
IHFG | ≤ 0.25
SDMN | 6.8
WDAI | ≤ 0.25
LKQY | ≤ 0.25
IHKC | ≤ 0.25
LTIN | ≤ 0.25
QLND | ≤ 0.25
MVDK | ≤ 0.25
CIDF | ≤ 0.25
IRAR | ≤ 0.25
AQYF | 0.277
LQQN | 3.31
QMKS | ≤ 0.25
YADM | ≤ 0.25
IIRY | ≤ 0.25
HFQS | ≤ 0.25
TFSE | ≤ 0.25
FHSM | ≤ 0.25
WGIP | ≤ 0.25
PTFI | ≤ 0.25
WNWS | ≤ 0.25
QKVS | ≤ 0.25

Variant | enrichment ratio
AYDM | ≤ 0.25
IHHE | ≤ 0.25
SIRV | ≤ 0.25
GLYW | ≤ 0.25
HRMY | ≤ 0.25
KRRK | ≤ 0.25
SFLY | 0.911
IHMY | ≤ 0.25
KCPF | ≤ 0.25
VVLC | ≤ 0.25
EAGQ | ≤ 0.25
IRLS | ≤ 0.25
TVLV | 0.789
RQNF | ≤ 0.25
PVHR | ≤ 0.25
VCKS | ≤ 0.25
WTSI | ≤ 0.25
IAQY | ≤ 0.25
YNKM | ≤ 0.25
GDMM | ≤ 0.25
QSRH | ≤ 0.25
EKSP | ≤ 0.25
KMHV | ≤ 0.25
RYEI | ≤ 0.25

Variant | enrichment ratio
EYDN | ≤ 0.25
RQYV | ≤ 0.25
RFKK | ≤ 0.25
LNTL | ≤ 0.25
SKNR | ≤ 0.25
MNWA | ≤ 0.25
NFQV | ≤ 0.25
SLDP | ≤ 0.25
HSIV | ≤ 0.25
WLVN | ≤ 0.25
VHMD | ≤ 0.25
ECPW | ≤ 0.25
RPPE | ≤ 0.25
ICWM | ≤ 0.25
GQCC | ≤ 0.25
RHLL | ≤ 0.25
DVCS | ≤ 0.25
IVLY | ≤ 0.25
NKSH | ≤ 0.25
VVWV | ≤ 0.25
LIHH | ≤ 0.25
YNPI | ≤ 0.25
RQKR | ≤ 0.25
INVR | ≤ 0.25

Variant | enrichment ratio
DGPL | ≤ 0.25
EYCI | ≤ 0.25
YQNF | ≤ 0.25
FREG | ≤ 0.25
KYYC | ≤ 0.25
SHCD | ≤ 0.25
AYCM | 0.253
IRMT | ≤ 0.25
IGNG | ≤ 0.25
GIIP | ≤ 0.25
KHTA | ≤ 0.25
NFWW | ≤ 0.25
GGTL | 5.81
SIDF | ≤ 0.25
FGHN | ≤ 0.25
MRDM | ≤ 0.25
VWRV | ≤ 0.25
GWCS | ≤ 0.25
EHIL | ≤ 0.25
DRQT | ≤ 0.25
YHII | ≤ 0.25
GLQA | ≤ 0.25
TFCK | ≤ 0.25
FSRV | ≤ 0.25

Variant | enrichment ratio
EILW | ≤ 0.25
WFLA | ≤ 0.25
ERRV | ≤ 0.25
ALLM | 7.31
VNRP | ≤ 0.25
QHPG | ≤ 0.25
MNQV | ≤ 0.25
VVSI | ≤ 0.25
FRCE | ≤ 0.25
WKWN | ≤ 0.25
TMWW | ≤ 0.25
RQCV | ≤ 0.25
WFIP | ≤ 0.25
VSVT | 0.566
PWIA | ≤ 0.25
DDRW | ≤ 0.25
ILLR | 0.288
WDAS | ≤ 0.25
GGCG | ≤ 0.25
QEYR | ≤ 0.25
NFKE | ≤ 0.25
ACYH | ≤ 0.25
LAPP | ≤ 0.25
PRKV | ≤ 0.25

Variant | enrichment ratio
DGLR | ≤ 0.25
GSFQ | ≤ 0.25
KYRQ | ≤ 0.25
ISDL | ≤ 0.25
TNYM | 1.85
QEEK | ≤ 0.25
YDDK | ≤ 0.25
VIMW | ≤ 0.25
QNER | ≤ 0.25
VNHA | ≤ 0.25
NGST | ≤ 0.25
LVDY | ≤ 0.25
SRGQ | ≤ 0.25
SEFV | 11.8
MAVI | ≤ 0.25
LCLF | ≤ 0.25
YAWT | ≤ 0.25
HLMI | ≤ 0.25
QDAI | ≤ 0.25
NHLI | ≤ 0.25
QSLR | ≤ 0.25
LWTL | ≤ 0.25
PIVD | ≤ 0.25
MVYS | ≤ 0.25

Variant | enrichment ratio
NMKM | ≤ 0.25
KQSM | ≤ 0.25
PALC | ≤ 0.25
NDRC | ≤ 0.25
FLRL | ≤ 0.25
GFYT | ≤ 0.25
IIWE | ≤ 0.25
WFHF | ≤ 0.25
GSIS | 7.27
MGDH | ≤ 0.25
YYDF | ≤ 0.25
PTCK | ≤ 0.25
NHEG | ≤ 0.25
YYEP | ≤ 0.25
MCPI | ≤ 0.25
RCKI | ≤ 0.25
TNYY | ≤ 0.25
QGYP | ≤ 0.25
THYH | ≤ 0.25
GHIM | ≤ 0.25
LMLG | ≤ 0.25
RRFE | ≤ 0.25
PSAT | ≤ 0.25
NAFW | ≤ 0.25

Variant | enrichment ratio
KGSV | ≤ 0.25
YVIA | ≤ 0.25
FCLK | 1.84
VPGW | ≤ 0.25
DCHQ | ≤ 0.25
APFN | ≤ 0.25
MYME | ≤ 0.25
SAEW | ≤ 0.25
RHKL | ≤ 0.25
HVRG | ≤ 0.25
HSHW | ≤ 0.25
EPNR | ≤ 0.25
RCRG | ≤ 0.25
TPMG | ≤ 0.25
WMCV | ≤ 0.25
HSFD | ≤ 0.25
QQSN | ≤ 0.25
GQDK | ≤ 0.25
EQCS | ≤ 0.25
KAKF | ≤ 0.25
QPFT | ≤ 0.25
ESAR | ≤ 0.25
KSRL | ≤ 0.25
ACGI | 10.9

Variant | enrichment ratio
MVIC | ≤ 0.25
YFCI | ≤ 0.25
SVNQ | ≤ 0.25
MAKM | ≤ 0.25
VYNF | ≤ 0.25
GWMD | ≤ 0.25
TFKC | ≤ 0.25
KKSV | ≤ 0.25
STVY | 8.93
HKQE | ≤ 0.25
QATG | ≤ 0.25
KGCW | ≤ 0.25
DKRF | ≤ 0.25
MFGQ | ≤ 0.25
SYRQ | ≤ 0.25
SDTP | ≤ 0.25
AADH | ≤ 0.25
LRGP | ≤ 0.25
GGDA | ≤ 0.25
TKSE | 1.37
VQNF | ≤ 0.25
GDFG | ≤ 0.25
MKKG | ≤ 0.25
GPDH | ≤ 0.25

Variant | enrichment ratio
NIHC | ≤ 0.25
PEPT | ≤ 0.25
LSMV | 7.72
HHAQ | ≤ 0.25
HGTC | ≤ 0.25
QYCT | ≤ 0.25
GTNG | ≤ 0.25
LVTG | ≤ 0.25
TPYR | ≤ 0.25
NRCL | 0.323
IQKP | ≤ 0.25
DFAN | ≤ 0.25
ICFC | ≤ 0.25
YTKD | ≤ 0.25
AQVQ | 10.3
CIID | ≤ 0.25
QCGS | ≤ 0.25
VYMA | ≤ 0.25
IPLT | ≤ 0.25
SDKG | ≤ 0.25
HEDH | ≤ 0.25
GCLA | 6.8
FPYP | ≤ 0.25
VVDP | ≤ 0.25

Variant | enrichment ratio
GEPW | ≤ 0.25
YEGH | ≤ 0.25
EGQR | ≤ 0.25
FEYY | ≤ 0.25
SFIR | ≤ 0.25
HAFQ | ≤ 0.25
GDYG | ≤ 0.25
PTNT | ≤ 0.25
MMGH | ≤ 0.25
HKGR | ≤ 0.25
DWFD | ≤ 0.25
YQTL | ≤ 0.25
QLIG | ≤ 0.25
PING | ≤ 0.25
EGHP | ≤ 0.25
PPPS | ≤ 0.25
TQFE | 2.17
QEGC | ≤ 0.25
SQDY | ≤ 0.25
VTEV | ≤ 0.25
LTRK | ≤ 0.25
TAQK | 6.87
FKPQ | ≤ 0.25
LLCV | ≤ 0.25

Variant | enrichment ratio
LPMQ | ≤ 0.25
VYSS | ≤ 0.25
WRCN | ≤ 0.25
LYKN | ≤ 0.25
QGVC | ≤ 0.25
ITSY | ≤ 0.25
ACCS | 2.23
TCAK | 11.2
KIQK | ≤ 0.25
YQNS | ≤ 0.25
YMAQ | ≤ 0.25
IKDL | ≤ 0.25
PGTW | ≤ 0.25
ESWT | ≤ 0.25
RCCP | ≤ 0.25
MPYN | ≤ 0.25
EMAG | ≤ 0.25
LMWN | ≤ 0.25
TDSK | ≤ 0.25
PDHA | ≤ 0.25
FKIG | ≤ 0.25
DVAH | ≤ 0.25
IYII | ≤ 0.25
YKPF | ≤ 0.25

Variant | enrichment ratio
CFCL | ≤ 0.25
DKGT | ≤ 0.25
NFLH | ≤ 0.25
PDTG | ≤ 0.25
AYLL | ≤ 0.25
FDWG | ≤ 0.25
NRIM | ≤ 0.25
ATHK | ≤ 0.25
HHYF | ≤ 0.25
APRV | ≤ 0.25
PMYQ | ≤ 0.25
DTFS | ≤ 0.25
SCVD | ≤ 0.25
KIQM | ≤ 0.25
YPTT | ≤ 0.25
NMNV | ≤ 0.25
ILGT | ≤ 0.25
SGRD | ≤ 0.25
